Paper PMC4336329 (PLoS ONE, 2015)
In all, about 310,000 compounds went through this assay and about 2,200 (0.71%) showed an effect of 50% or more. Effects have a minus sign here. This is one part of the list.

biological target: human ether-à-go-go-related gene (hERG) potassium channel (human, UniProt Q12809); test: primary screen, population patch clamp on CHO cells stably expressing hERG
Sequence (Q12809 whole entry, looked up): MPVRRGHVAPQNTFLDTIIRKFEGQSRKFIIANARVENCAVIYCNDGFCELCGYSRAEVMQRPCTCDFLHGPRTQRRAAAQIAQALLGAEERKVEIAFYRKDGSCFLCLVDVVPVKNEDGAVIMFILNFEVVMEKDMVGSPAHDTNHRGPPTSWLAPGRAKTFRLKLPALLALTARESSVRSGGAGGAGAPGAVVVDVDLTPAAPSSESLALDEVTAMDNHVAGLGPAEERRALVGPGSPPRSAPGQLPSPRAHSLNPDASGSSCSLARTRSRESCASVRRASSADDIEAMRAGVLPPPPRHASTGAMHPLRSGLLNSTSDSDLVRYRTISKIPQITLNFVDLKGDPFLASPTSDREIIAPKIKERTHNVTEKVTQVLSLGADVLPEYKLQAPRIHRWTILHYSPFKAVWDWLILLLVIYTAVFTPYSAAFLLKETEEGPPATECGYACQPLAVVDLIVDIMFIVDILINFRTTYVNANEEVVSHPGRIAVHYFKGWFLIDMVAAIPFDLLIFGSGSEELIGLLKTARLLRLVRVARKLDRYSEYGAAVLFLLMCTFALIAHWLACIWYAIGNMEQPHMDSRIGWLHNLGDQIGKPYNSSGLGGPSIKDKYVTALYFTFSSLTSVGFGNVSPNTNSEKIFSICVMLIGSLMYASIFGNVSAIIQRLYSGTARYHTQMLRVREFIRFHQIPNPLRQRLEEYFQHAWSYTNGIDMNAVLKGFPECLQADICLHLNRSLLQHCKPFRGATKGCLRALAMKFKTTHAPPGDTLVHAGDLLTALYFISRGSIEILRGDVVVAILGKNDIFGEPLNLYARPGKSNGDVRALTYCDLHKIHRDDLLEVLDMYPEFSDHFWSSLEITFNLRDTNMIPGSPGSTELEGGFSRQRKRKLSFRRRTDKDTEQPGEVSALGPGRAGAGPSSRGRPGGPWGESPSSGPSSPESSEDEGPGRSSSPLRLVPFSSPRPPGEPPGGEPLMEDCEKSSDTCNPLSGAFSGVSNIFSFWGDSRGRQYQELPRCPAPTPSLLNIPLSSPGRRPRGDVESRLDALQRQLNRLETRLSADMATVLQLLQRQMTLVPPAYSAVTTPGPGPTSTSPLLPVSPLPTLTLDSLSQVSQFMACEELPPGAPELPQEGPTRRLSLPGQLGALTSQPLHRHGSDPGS

Row | SMILES | hERG current change (%, negative = inhibition) at 1uM [%]
1 | CC(=O)N/N=C(\C)CC(=O)Nc1cccc(C(F)(F)F)c1 | 4.9
2 | COc1ccc(-c2cc(C3CCN(c4cc(Cl)nc(N)n4)CC3)[nH]n2)cc1 | 7.21
3 | O=C(NCCCn1ccnc1)c1ccc(Cl)cc1[N+](=O)[O-] | 0.784
4 | O=C(Nc1nc(-c2cccc3ccccc23)cs1)c1cnccn1 | 15.5
5 | CC1CCCC(NC(=O)CSc2nccn2C)C1C.Cl (stereo not drawn) | 8.44
6 | Cc1ccc(NC(=O)C2CC(=O)N(c3ccc4c(c3)OCCO4)C2)cc1S(=O)(=O)N1CCCCCC1 (stereo not drawn) | 6.92
7 | CCc1ccc(N2CC(C(=O)OC)CC2=O)cc1 (stereo not drawn) | 9.09
8 | COc1ccc(C(=O)NC(CO)c2nnc(SCc3ccc(Cl)c(Cl)c3)n2C)cc1 (stereo not drawn) | 4.53
9 | CN1C(=O)/C(=C/c2ccc(OCc3ccc(F)cc3)cc2)N(C)C1=S | 11.7
10 | COc1cccc(/C=N/Nc2nc3ccccc3n3cnnc23)c1 | 12.9
11 | CC1=CCC2C(=O)N(Cc3ccccc3)C(=O)C2C1 (stereo not drawn) | 9.01
12 | Cc1nn(C(C)(C)C)c(OC(=O)c2ccco2)c1Sc1ccccc1 | 11.8
13 | Oc1[nH]c2ccc(Br)cc2c1N=NC(=S)NCC1CCCO1 (stereo not drawn) | 7.17
14 | O=C(CNC(=O)c1ccccc1Cl)OC1CCOC1=O (stereo not drawn) | 13.5
15 | Cc1cc(-c2ccccc2)nc2cc(C(N)=O)nn12 | 13.6
16 | COc1ccc(CN2CCN(Cc3ccccc3F)CC2)cc1OC.O=C(O)C(=O)O | 5.6
17 | Cc1csc(C)[n+]1CC(=O)c1ccccc1.[Br-] | 19.3
18 | CC1(C)Cc2c(c(-c3ccco3)[nH]c(=O)c2C#N)CO1 | 16.9
19 | O=[N+]([O-])c1ccc(N=NNc2ccccc2)cc1 | 11.3
20 | CN(CC(=O)Nc1ccc(S(N)(=O)=O)cc1)c1ccccc1 | 6.04
21 | Cc1nc(N)c(Br)c(C)c1Br | 4.32
22 | CCOc1ccc(C(C)NC(=S)NCc2ccc(Cl)cc2)cc1 (stereo not drawn) | 3.49
23 | O=C(CSc1cn(CCNC(=O)c2ccc3ccccc3c2)c2ccccc12)NCc1ccco1 | 2.41

Row | SMILES | hERG current change (%, negative = inhibition) at 1uM [%]
24 | O=c1cc2c(nn1Cc1ccc(F)cc1)-c1ccccc1CC2 | -11.4
25 | CC(=O)N1CCc2cc(S(=O)(=O)CCC(=O)O)ccc21 | 7.93
26 | O=S1(=O)N=C(N(Cc2cccs2)c2ccc(O)cc2)c2ccccc21 | -4.3
27 | CCOC(=O)C1CCCN(CCC(=O)Nc2cccc(Cl)c2C)C1.Cl (stereo not drawn) | 2.48
28 | CC(C)(C)CC(C)(C)NCC(O)COCCOc1ccc(Br)cc1.Cl (stereo not drawn) | 1.84
29 | CCCC(c1nnnn1C(C)(C)C)N1CCN(Cc2ccccc2)CC1.Cl (stereo not drawn) | -5.03
30 | CCOC(=O)CC(NC(=O)Cn1nnc(-c2ccccc2Cl)n1)c1ccc(OC)cc1 (stereo not drawn) | 12.1
31 | COc1ccccc1Nc1nc(N)nc(CSc2nccc(C)n2)n1 | 13.4
32 | C(#Cc1ccccc1)CN1CCOCC1.Cl | 12.8
33 | CC1CCCN(C(=O)Cn2nnc(-c3ccc(N(C)C)cc3)n2)C1 (stereo not drawn) | 13.7
34 | COc1ccc(/C=C/C(=O)OCC(=O)c2ccc3c(c2)NC(=O)CO3)cc1 | 14.3
35 | O=C(CSCCc1ccccn1)Nc1ccc(Br)cn1 | -8.45
36 | O=C(C1CCCN(S(=O)(=O)c2cnc[nH]2)C1)N(CCc1ccccc1)Cc1ccccc1 (stereo not drawn) | -1.14
37 | CCOc1cc(CNCCc2c[nH]c3ccccc23)cc(Cl)c1OCC(N)=O.Cl | -16.1
38 | CC1(C)CC(=O)c2cc(OCC(=O)NCc3cccnc3)ccc2O1 | -5.3
39 | Cc1cc(C)cc(Oc2ccccc2/C=C\C(=O)O)c1 | 12.3
40 | O=C1C(=O)N(CCN2CCOCC2)C(c2cccc(Cl)c2)/C1=C(/O)c1ccc2c(c1)OCO2 (stereo not drawn) | 16.3
41 | CCCNC(=O)NC(=O)COc1ccc(-c2ccc(C#N)cc2)cc1 | 10.1
42 | CO.COC(=O)/C=C/c1c(C)[nH]c(=O)[nH]c1=O | 13.1
43 | O=C(CN1C(=O)NC2(CCCC2)C1=O)OCCOc1ccccc1 | 7.12
44 | CC1CN(S(=O)(=O)c2ccccc2)CN1C(=O)N1CCOCC1 (stereo not drawn) | 15.7
45 | COC(=O)c1ccc(-c2nn(C)c(=O)c3ccccc23)cc1 | 5.21
46 | COc1cccc(CNC(=O)C2CCCN(c3ncnc4c3nc3n4CCCCC3)C2)c1 (stereo not drawn) | -9.22

Row | SMILES | hERG current change (%, negative = inhibition) at 1uM [%]
47 | O=C(NCc1ccccc1)C1(C(F)(F)F)C/C(=C\CCO)CCCO1 (stereo not drawn) | 14.1
48 | O=C(Nc1nc(-c2ccccc2)cs1)C1CCCN(S(=O)(=O)c2cccc([N+](=O)[O-])c2)C1 (stereo not drawn) | 16.1
49 | CC(C(=O)Nc1cccnc1)N1C(=O)C2C3C=CC(C3)C2C1=O (stereo not drawn) | 3.66
50 | O=C(c1cccc(Br)c1)N1CCCc2ccccc21 | 12.4
51 | CCN(C(=O)c1cc2cc(OC)ccc2oc1=O)c1cccc(C)c1 | 17
52 | Cc1ccc(-c2nn(-c3ccccc3)cc2NC(=O)CCl)cc1 | 1.1
53 | COc1ccc2cc(Br)ccc2c1CC(=O)NC(C)(C)C | 10.2
54 | CC1(C)CC(=O)C(C(C2=C(O)CC(C)(C)CC2=O)c2cccc(O)c2)C(=O)C1 (stereo not drawn) | -3
55 | Cc1ccccc1-c1nnn(CC(=O)NCc2ccc3c(c2)OCO3)n1 | 18.7
56 | O=C(O)c1cc(C(F)(F)F)nc2ccccc12 | 10.5
57 | CC1CN(S(=O)(=O)c2ccc(Cl)c(S(=O)(=O)N3CC(C)OC(C)C3)c2)CC(C)O1 (stereo not drawn) | 9.12
58 | O=c1c(-c2ccc3c(c2)OCCO3)c(C(F)(F)F)oc2cc(O)cc(O)c12 | -1.15
59 | O=C(CN1C(=O)COc2ccccc21)Nc1ccc2c(c1)OCCO2 | 6.01
60 | O=C(O)C1C2CCC(C2)C1C(=O)NCCc1ccc(F)cc1 (stereo not drawn) | 24.5
61 | Cc1ccc(OC(=O)c2ccc3snnc3c2)cc1 | 9.79
62 | CC(=O)Nc1ccc(CNc2ncnc3ccc(-c4c(C)noc4C)cc23)cc1 | 11.5
63 | Cc1ccnc(NC(=O)CCc2c[nH]c3ccccc23)c1 | 7.34
64 | Cc1oc2ccccc2c1-c1cn2c(n1)SCC2 | 6.14
65 | CCN(Cc1ccccc1)C(c1ccc(C)cc1)c1nnnn1C(C)(C)C (stereo not drawn) | 8.35
66 | O=C(NCCCN1CCCC1=O)C(=O)Nc1cccc(F)c1 | -7.77
67 | COc1cc(C)cc2oc(=O)c(CC(=O)N3C[C@H]4C[C@@H](C3)c3cccc(=O)n3C4)c(C)c12 | 10.8
68 | Cc1ccc(CNC(=O)C2CCCN(S(=O)(=O)c3c(C)noc3C)C2)cc1 (stereo not drawn) | 7.69
69 | COc1nc(Oc2ccc(C(=O)O)cc2)nc(Oc2ccc(C(=O)O)cc2)n1 | 6.33

Row | SMILES | hERG current change (%, negative = inhibition) at 1uM [%]
70 | Cc1nn(-c2ncc(C(F)(F)F)cc2Cl)c(=O)n1-c1cccc(Cl)c1 | 20.3
71 | CCN(CC)CCCn1c2c(c(SCC(=O)Nc3ccc4c(c3)OCO4)nc1=O)CCC2 | 3.69
72 | CCN(Cc1ccccc1)c1ccc(/C=N/NC(=S)NC(C)C)cc1 | 6.96
73 | O=C(NCc1ccccc1)c1ccc(NC(=O)c2ccco2)cc1 | 5.4
74 | COc1ccc(C2=Nc3ccccc3OC2)cc1 | 3.04
75 | COc1ccc(-c2cnc(SCC(=O)Nc3nc(C(C)(C)C)cs3)n2Cc2ccco2)cc1 | 9.81
76 | Cc1ccc(S(=O)(=O)NCCC(=O)NCCCSc2ccccc2)cc1 | 6.16
77 | O=C(N/N=C/c1cccn1-c1ccc(O)cc1)c1cccc2ccccc12 | -6.71
78 | CC1Cn2c(nnc2-c2ccccc2O)S1 (stereo not drawn) | 1.21
79 | CCN1CCN(C(=O)c2ccc3c(c2)c(C)c(C)n3Cc2ccccc2)CC1 | 13.9
80 | Cc1ccc(C(=O)NCCNC(=O)c2ccccc2)cc1 | 11.9
81 | CCOC(=O)c1cc(NC(=O)c2ccc(Cl)cc2)c(=O)n2c1oc1ccc(Cl)cc12 | 14.8
82 | CC1(c2nnc(-c3ccccc3)o2)CC(c2cccc(Cl)c2)=NO1 (stereo not drawn) | 12.3
83 | Cc1cccc(NC(=O)CSc2nnc(-c3ccco3)c(-c3ccco3)n2)c1C | 3.37
84 | CCc1ccccc1N1C(=O)NC(=O)/C(=C\c2cc(C)n(C)c2C)C1=O | 3.08
85 | CCOC(=O)C1CCCN(C(=S)Nc2ccc(OC)cc2)C1 (stereo not drawn) | 14.4
86 | Cn1c(=O)n(Cc2ccc(F)cc2)c(=O)c2c1nc1n2CCN1Cc1ccco1 | -5.84
87 | Cc1cnc(Sc2ncccc2[N+](=O)[O-])nc1 | 2.72
88 | CC(C)(C)OC(=O)[C@H](Cc1ccccc1)NC(=O)c1nc[nH]c1C(=O)N[C@@H](Cc1ccccc1)C(=O)OC(C)(C)C | 9.8
89 | c1ccc(-n2c(Cc3cccnc3)nc3cnccc32)cc1 | -18.3
90 | NS(=O)(=O)c1cccc(NC(=O)COC(=O)Cc2n[nH]c(=O)c3ccccc23)c1 | 5.55
